# In all, about 33,000 sequences were measured (“E-score (-0.5 to 0.5)”: median about -0.032, highest 2% from about 0.36 on). The list shows a part of the results.
# Molecular target: T1, Sko1 (UniProt Q02100)
# T1 sequence: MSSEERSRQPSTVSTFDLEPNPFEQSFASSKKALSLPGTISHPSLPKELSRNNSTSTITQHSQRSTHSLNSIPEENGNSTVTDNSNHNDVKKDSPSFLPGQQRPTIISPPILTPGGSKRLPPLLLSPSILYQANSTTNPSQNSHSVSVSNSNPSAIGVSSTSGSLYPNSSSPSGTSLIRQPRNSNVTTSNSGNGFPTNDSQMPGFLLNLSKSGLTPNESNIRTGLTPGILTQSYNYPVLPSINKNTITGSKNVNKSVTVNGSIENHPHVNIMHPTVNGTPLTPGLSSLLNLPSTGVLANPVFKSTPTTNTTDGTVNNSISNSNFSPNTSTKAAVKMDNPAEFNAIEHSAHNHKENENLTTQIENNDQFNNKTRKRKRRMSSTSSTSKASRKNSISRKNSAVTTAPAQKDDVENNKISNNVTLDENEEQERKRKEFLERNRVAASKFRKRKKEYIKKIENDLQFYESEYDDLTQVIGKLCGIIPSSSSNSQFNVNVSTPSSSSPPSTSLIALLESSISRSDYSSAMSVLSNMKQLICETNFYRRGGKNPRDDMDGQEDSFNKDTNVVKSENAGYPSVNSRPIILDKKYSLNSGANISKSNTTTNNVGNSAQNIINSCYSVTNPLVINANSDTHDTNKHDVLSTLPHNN
# Assay: PBM E-score (8-mer binding enrichment) (E-score (-0.5 to 0.5)); higher = stronger / more preferred TF binding; most listed sequences are background and not binding sites
# Details: protein concentration: 200 nM; construct: GST-full length
# Method in brief: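 For each ungapped eight-base word taken together with its reverse complement, the Universal PBM Analysis Suite assigned an E-score. Binding data came from GST-tagged yeast transcription factors, applied at about 100-200 nM, on universal all-10-mer Agilent arrays made double-stranded by primer extension. Fluorescent anti-GST marked bound protein, and scans were normalised with masliner.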
row,Sequence,PBM E-score
1,ATGGGACG,-0.0288
2,CAAAGGGC,-0.252
3,ATGTTAAT,0.129
4,GAGGGACA,-0.236
5,CCAGCCGC,-0.189
6,CCATTGAC,-0.0416
7,AGATTAAA,0.227
8,ATTCTAAA,0.16
9,TCCGTTCA,-0.237
10,AGAGTACG,0.184
11,AACGTAAT,0.48
12,AGGCTCGC,-0.31
13,CGAAGGAA,-0.0432
14,ATAAGGGA,0.136
15,ATCGGAGC,-0.332
16,CCCGATGC,-0.195
17,GCCCTGGA,-0.37
18,ACACAAAC,0.144
19,ACACCAGT,-0.153
20,AGAACCCA,-0.151
21,TATTTGGA,0.151
22,GGCTATGA,0.0326

row,Sequence,PBM E-score
1,CATAGGAA,-0.0546
2,GAGGACCA,-0.0484
3,AGTCCTCC,-0.279
4,CCACGAGA,-0.206
5,CCCAGACA,-0.194
6,GCACTGAC,0.0051
7,CGCGCAAC,-0.0161
8,ATGGACCA,0.0217
9,ATCCGTGC,0.00159
10,GTGTGTTA,0.236
11,AATCTAAT,0.115
12,CGGCGGAA,-0.197
13,CTAGAGTA,0.0983
14,AATTCGTC,0.331
15,ATCAATAG,0.18
16,AACCCTTC,-0.00059
17,CTCCCTCA,-0.248
18,CCACGTTA,0.289
19,ATAGGACA,0.00759
20,AAATGGGG,-0.311
21,ACTATCCA,-0.112
22,CCTACGAC,0.0224

row,Sequence,PBM E-score
1,CGCTGAGC,-0.0872
2,TCGTAAAA,0.263
3,CCAACCAA,-0.0674
4,ACACGGCC,-0.305
5,CAGCCCTC,-0.334
6,AGGCGGTG,-0.249
7,ACTAGCCG,-0.145
8,CCTCTGCA,-0.229
9,CTATGGCA,-0.0917
10,TCATGCCA,0.147
11,CTCTCCAA,-0.0315
12,CCGTTGAG,-0.148
13,ATGGCACA,-0.118
14,TCTTTTAA,0.258
15,CCGCGGGA,-0.201
16,ACCGTAAG,0.123
17,ACTAACTA,-0.0162
18,CCGGAGGA,-0.38
19,ATGGGCTA,0.0698
20,AAGTCTCG,-0.16
21,CAAAAGTA,0.236
22,GGTTTTTA,0.0263

row,Sequence,PBM E-score
1,AGTTGGGC,-0.117
2,GACCGAAA,-0.028
3,ATAGCTAC,0.113
4,ACAATAAA,0.0772
5,CCCGTTAA,-0.242
6,GCTCGAGA,0.0461
7,ACGACGCT,-0.112
8,AACATTGG,-0.187
9,AGGTGTTA,0.109
10,AGACATCA,0.138
11,CAGGGTTA,-0.146
12,ACTGTCAC,0.00427
13,CGACGTCC,0.169
14,GTTGTACA,0.24
15,GGCCATGA,0.004
16,GCTTATGA,0.0958
17,GCCGTTGA,-0.137
18,CGGGGTCC,-0.232
19,GCTCGATA,-0.192
20,AGATCTCA,0.0106
21,GAGAACGA,0.0376
22,AAGGGTCG,-0.0484

row,Sequence,PBM E-score
1,CATCGACG,0.0461
2,AGGCATTA,0.0324
3,GGCTGTAA,-0.169
4,GTAGTGAC,0.321
5,CGCATCCA,-0.0549
6,TCTCTGCA,-0.124
7,AAGTTGTA,0.157
8,CCACATCG,-0.108
9,CGGGGATA,-0.253
10,ACGCCACC,0.0629
11,ATAATTTG,0.224
12,AAACAACA,0.14
13,CGATTATC,-0.0402
14,TCTGAAGA,-0.217
15,CCTCGACA,-0.152
16,CTGTCAGA,-0.211
17,CTACAGTA,-0.0801
18,CTGCAATC,-0.0429
19,TAAGATGA,0.241
20,ATCCGTAG,-0.265
21,GACAATAC,0.222

# Reference: the supplement of paper PMC3334620
